Legend:
Experiment in all cases: SPR, receptor fixed on CM5 chip
human IL2Rα = target: T1, human IL2Rα (human, UniProt P01589 22-213, limits assumed)
T1 construct: also called IL2 receptor α; CD25
T1 sequence (looked up): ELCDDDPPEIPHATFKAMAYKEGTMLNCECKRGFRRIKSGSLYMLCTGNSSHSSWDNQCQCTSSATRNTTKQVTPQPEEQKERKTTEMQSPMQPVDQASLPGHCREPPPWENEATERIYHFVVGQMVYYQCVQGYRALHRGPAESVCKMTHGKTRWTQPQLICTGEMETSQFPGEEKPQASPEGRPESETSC

human IL2Rβγ = target: T2, human IL2Rβγ (human, UniProt P14784 27-239; P31785 23-262, limits assumed)
T2 construct: Dimeric receptor fixed to a CM5 chip
T2 sequence (looked up) 1: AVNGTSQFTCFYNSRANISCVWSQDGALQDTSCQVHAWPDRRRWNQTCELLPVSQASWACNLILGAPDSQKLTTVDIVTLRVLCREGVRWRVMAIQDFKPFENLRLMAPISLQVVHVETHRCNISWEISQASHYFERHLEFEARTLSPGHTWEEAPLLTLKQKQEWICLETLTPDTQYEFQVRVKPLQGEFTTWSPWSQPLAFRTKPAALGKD
T2 sequence (looked up) 2: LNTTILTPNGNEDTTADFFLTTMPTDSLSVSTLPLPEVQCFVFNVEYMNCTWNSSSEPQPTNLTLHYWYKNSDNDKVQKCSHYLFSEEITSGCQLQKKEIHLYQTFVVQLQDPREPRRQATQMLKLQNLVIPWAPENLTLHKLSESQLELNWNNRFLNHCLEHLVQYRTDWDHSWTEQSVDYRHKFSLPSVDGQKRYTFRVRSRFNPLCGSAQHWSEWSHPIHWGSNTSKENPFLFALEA

human IL2Rαβγ = target: T3, human IL2Rαβγ (human, UniProt P01589 22-213; P14784 27-239; P31785 23-262, limits assumed)
T3 construct: Trimeric receptor fixed to a CM5 chip
T3 sequence (looked up) 1: T1 sequence (looked up)
T3 sequence (looked up) 2: T2 sequence (looked up) 1
T3 sequence (looked up) 3: T2 sequence (looked up) 2

Kd (human IL2Rα): 15.8 nM
Kd (human IL2Rβγ): 0.25 nM
βγ / αβγ (ratio of binding affinity to IL2Rβγ over IL2Rαβγ) (human IL2Rβγ): 5 ratio
Kd (human IL2Rαβγ): 0.05 nM
B1: Aldesleukin (Proleukin, Novartis, Switzerland) (ligand)
chain: not shown
notes: Marketed IL2 analogue; also called positive control (for IL2 receptors)

Source: EP4578871A1 (Mustbio Co., Ltd., dated 2025)
